Results taken from a collection of fitness landscapes (doi:10.1126/science.1257360).
This is one part of the list.

B1: PhoQ; a variant is named by its letters at X, in order, P23837 (parent)
chain: MKKLLRLFFPLSLRVRFLLATAAVVLVLSLAYGMVALIGYSVSFDKTTFRLLRGESNLFYTLAKWENNKLHVELPENIDKQSPTMTLIYDENGQLLWAQRDVPWLMKMIQPDWLKSNGFHEIEADVNDTSLLLSGDHSIQQQLQEVREDDDDAEMTHSVAVNVYPATSRMPKLTIVVVDTIPVELKSSYMVWSWFIYVLSANLLLVIPLLWVAAWWSLRPIEALAKEVRELEEHNRELLNPATTRELTSLVRNLNRLLKSERERYDKYRTTLTDLTHSLKTPLXXLQXXLRSLRSEKMSVSDAEPVMLEQISRISQQIGYYLHRASMRGGTLLSRELHPVAPLLDNLTSALNKVYQRKGVNISLDISPEISFVGEQNDFVEVMGNVLDNACKYCLEFVEISARQTDEHLYIVVEDDGPGIPLSKREVIFDRGQRVDTLRPGQGVGLAVAREITEQYEGKIVAGESMLGGARMEVIFGRQHSAPKDE

Variants of: B1
Experiment: enrichment ratio after two sorts for PhoP signalling (ratio (wild type AVST 3.29)); higher = more functional
Conditions: with PhoP (E. coli)

Variant	enrichment ratio
VRFQ	≤ 0.25
GEKY	≤ 0.25
MLYQ	18.8
KFSG	≤ 0.25
AEHA	≤ 0.25
PHMK	≤ 0.25
KFSP	≤ 0.25
IPSC	≤ 0.25
FTLM	8.49
HPRK	≤ 0.25
RGDF	≤ 0.25
MKSG	≤ 0.25
ITWA	≤ 0.25
RGMQ	≤ 0.25
YSKP	≤ 0.25
TLTW	1.34
STAC	4.33
NQYQ	≤ 0.25
PGPF	≤ 0.25
PRCC	≤ 0.25
QHLP	≤ 0.25
LDGS	≤ 0.25
LDKG	≤ 0.25
SPMK	≤ 0.25
LGNT	≤ 0.25
NEPF	≤ 0.25

Variant	enrichment ratio
NQIF	≤ 0.25
TTFV	1.16
VADI	≤ 0.25
WMCP	≤ 0.25
VEFC	≤ 0.25
WSID	≤ 0.25
SWHE	≤ 0.25
AVVT	0.37
PDTM	≤ 0.25
SGNM	6.15
MWNI	≤ 0.25
IEPE	≤ 0.25
QIRW	≤ 0.25
PWTG	≤ 0.25
GTPM	≤ 0.25
GLIG	≤ 0.25
RWVL	≤ 0.25
GDWH	≤ 0.25
HKFQ	≤ 0.25
VEPL	≤ 0.25
GMNY	≤ 0.25
LLKY	≤ 0.25
HTYS	≤ 0.25
VWSE	≤ 0.25
FYPT	≤ 0.25
ASNL	4.93

Variant	enrichment ratio
IKRE	≤ 0.25
WCKL	≤ 0.25
TFQH	≤ 0.25
IFQK	≤ 0.25
DFSW	≤ 0.25
NCQF	≤ 0.25
DRYE	≤ 0.25
MQTA	≤ 0.25
AAVL	8.94
WNGF	≤ 0.25
MSTA	≤ 0.25
QYVN	≤ 0.25
KMGS	≤ 0.25
CLSN	≤ 0.25
EPPF	≤ 0.25
ATRA	≤ 0.25
GWTL	≤ 0.25
IHDT	≤ 0.25
SVGE	≤ 0.25
FIMG	≤ 0.25
YCAS	0.465
GHWM	≤ 0.25
EWSL	≤ 0.25
NLYH	≤ 0.25
PIES	≤ 0.25
FMMV	≤ 0.25

Variant	enrichment ratio
TTFM	≤ 0.25
KGFY	≤ 0.25
EVST	≤ 0.25
ADCG	1.58
YDDH	≤ 0.25
KWKF	≤ 0.25
WESC	≤ 0.25
PFTV	≤ 0.25
SMEP	≤ 0.25
VGHQ	≤ 0.25
LWWV	≤ 0.25
RPGI	≤ 0.25
VEPA	≤ 0.25
FAGI	≤ 0.25
SCMY	4.95
HTRP	≤ 0.25
ADGY	≤ 0.25
VCPH	≤ 0.25
GRKW	≤ 0.25
IYQL	≤ 0.25
ISLY	≤ 0.25
RIMP	≤ 0.25
PVSC	≤ 0.25
VKNA	≤ 0.25
TNVH	≤ 0.25
FKRC	≤ 0.25

Variant	enrichment ratio
TGFI	≤ 0.25
TNAM	15.7
IMDW	≤ 0.25
YILI	0.374
THDG	≤ 0.25
FTGF	≤ 0.25
AKGM	≤ 0.25
LKNR	≤ 0.25
MEYS	25.6
MDNV	≤ 0.25
FIYN	≤ 0.25
IEYQ	≤ 0.25
WHCW	≤ 0.25
ACII	3.37
LRMN	≤ 0.25
NNKL	≤ 0.25
TRYE	≤ 0.25
HGSM	0.601
ICGE	≤ 0.25
LWFC	≤ 0.25
QIGH	14
KTVN	≤ 0.25
SNDC	≤ 0.25
RRES	≤ 0.25
QYFW	≤ 0.25
DDSS	≤ 0.25

Variant	enrichment ratio
FCQD	≤ 0.25
DPVF	≤ 0.25
YRSQ	≤ 0.25
IYPG	≤ 0.25
PNRT	≤ 0.25
QFFV	≤ 0.25
MGTT	≤ 0.25
SCMR	9.17
KFWC	≤ 0.25
REHW	≤ 0.25
PKTI	≤ 0.25
HLTC	≤ 0.25
LASD	≤ 0.25
SKLQ	10.1
GDYM	≤ 0.25
RSMA	≤ 0.25
TCIS	≤ 0.25
YKFP	≤ 0.25
QDMW	≤ 0.25
DSMD	≤ 0.25
TATN	0.569
RDRH	≤ 0.25
SQCK	9.83
